In the antibiotic and cytotoxicity screens of Wong et al. (2023) one finds cytotoxicity call data, which are given here for 28 compounds.

The list shows a part of the results.

For this assay, the system named is HepG2. The experiment in a line: cytotoxicity call (relative viability < 0.9). Particulars: 10 µM.
Turning to `COCCOC(=O)N1C(=O)[C@@]2(c3cc(C#Cc4ccc(OC)cc4)ccc31)[C@H](C(=O)N1CCc3cc(OC)c(OC)cc3C1)[C@H]1C(=O)O[C@H](c3ccccc3)[C@H](c3ccccc3)N1[C@@H]2c1ccccc1OCCO`, the cytotoxicity call was “inactive”.
Then `O=c1cccc(C=Cc2ccc3c(c2)OCO3)o1` [6-(3,4-METHYLENEDIOXYSTYRYL)-alpha-PYRONE ], with “inactive”.
In the case of `Cn1nnnc1SCC(=O)Nc1ncccn1`, the cytotoxicity call was “inactive”.
For the compound `COc1ccc(CN(C)C[C@@H]2OCCCC[C@@H](C)Oc3ccc(NC(=O)NC4CCCCC4)cc3C(=O)N([C@@H](C)CO)C[C@@H]2C)cc1`, the cytotoxicity call is “inactive”.
Take `CC12CCCC(O)(C1)C1CC(C)(C)C1CC2` (stereo not drawn) [beta-CARYOPHYLLENE ALCOHOL ]: the cytotoxicity call is “inactive”.
For `CC(=O)Oc1cccc(C)c1` [meta-CRESYL ACETATE ], the cytotoxicity call was “inactive”.
For the compound `CCC=CCC=CCC=CCC=CCC=CCCCC(=O)OCC` [OMEGA-3-ACID ESTERS (EPA shown) ], the cytotoxicity call is “inactive”.
Next, `C[C@H](CO)N1C[C@H](C)[C@@H](CN(C)S(=O)(=O)c2ccc(F)cc2)Oc2ncc(Br)cc2C1=O`: “inactive”; `Cc1c(C)c2c(c(C)c1O)CCC(C)(CCCC(C)CCCC(C)CCCC(C)C)O2` (stereo not drawn) [alpha-TOCHOPHEROL [4 mM] ]: “inactive”; `CC1(C)CCC2(C)CCC3(C)C(=CCC4C5(C)CCC(O)C(C)(C)C5CCC43C)C2C1` (stereo not drawn) [beta-AMYRIN ]: “inactive”.
`C[C@@H]1CCCCO[C@H](CN(C)C(=O)Nc2ccc3c(c2)OCO3)[C@@H](C)CN([C@H](C)CO)C(=O)c2cc(NC(=O)Nc3ccc(F)cc3)ccc2O1`: the cytotoxicity call was “inactive”.
Then `CNC1C(OC2C(OC3C(O)C(O)C(NC(=N)N)C(O)C3NC(=N)N)OC(C)C2(O)C=O)OC(CO)C(O)C1O.O=S(=O)(O)O` (stereo not drawn) [STREPTOMYCIN SULFATE [5mM; 10% aq DMSO + 5mM ethanolamine] ], with “inactive”.
Next, `CC(=O)Oc1c(C)c(C)c2c(c1C)CCC(C)(CCCC(C)CCCC(C)CCCC(C)C)O2` (stereo not drawn) [alpha-TOCHOPHERYL ACETATE [4mM] ]: “inactive”; `C[C@H](CO)N1C[C@H](C)[C@@H](CN(C)CC2CCCCC2)Oc2ccc(NS(=O)(=O)c3cn(C)cn3)cc2CC1=O`: “inactive”.
`NNC(=O)CCCCCCC(=O)O`: the cytotoxicity call is “inactive”.
Consider `C[C@H]1CCCCO[C@@H](CN(C)Cc2ccc(C(F)(F)F)cc2)[C@@H](C)CN([C@@H](C)CO)C(=O)c2cc(NC(=O)Nc3ccccc3)ccc2O1`, for which the cytotoxicity call was “active”.
On to `CCCN(C)C[C@H]1OCCCC[C@@H](C)Oc2ccc(NC(=O)Nc3ccccc3)cc2C(=O)N([C@@H](C)CO)C[C@H]1C`, for which the cytotoxicity call was “inactive”.
On to `O=C1c2c(O)cc(CO)cc2C(OC2OC(CO)C(O)C(O)C2O)c2cccc(OC3OC(CO)C(O)C(O)C3O)c21` (stereo not drawn) [CASANTHRANOL [cascaroside A shown] ], for which the cytotoxicity call was “inactive”.
Then `CC(CCC(=O)O)C1CCC2C3CC(O)C4CC(O)CCC4(C)C3CCC12C` (stereo not drawn) [alpha-HYDROXYDEOXYCHOLIC ACID ], with “inactive”; and `CO[C@@H]1CN(C)C(=O)c2cc(NS(=O)(=O)CC(F)(F)F)ccc2OC[C@@H](C)N(Cc2nccs2)C[C@H]1C`, with “inactive”; and `COc1ccc(S(=O)(=O)Nc2ccc3c(c2)C(=O)N([C@H](C)CO)C[C@@H](C)[C@@H](CN(C)S(C)(=O)=O)O3)cc1`, with “inactive”.
Regarding `C[C@H](CO)N1C[C@H](C)[C@@H](CN(C)Cc2ccc(C(=O)O)cc2)Oc2ccc(NC(=O)CCCN(C)C)cc2C1=O`, the cytotoxicity call was “inactive”.
As to `Cn1cnc(S(=O)(=O)N2C[C@H](O)COC[C@H]3O[C@H](CC(=O)NC4CCCC4)CC[C@@H]32)c1`, the cytotoxicity call was “inactive”.
`COc1ccc(NC(=O)N(C)C[C@H]2OCCCC[C@@H](C)Oc3ccc(NC(=O)CCC(F)(F)F)cc3C(=O)N([C@H](C)CO)C[C@@H]2C)cc1`: the cytotoxicity call was “inactive”.
Take `CC(C=CC=C(C)C=CC1=C(C)CCCC1(C)C)=CC=CC=C(C)C=CC=C(C)C=CC1=C(C)CCCC1(C)C` [beta-CAROTENE [2mM] ]: the cytotoxicity call was “inactive”.
Next, `Cl.NCCCC(=O)O` [gamma-AMINOBUTYRIC ACID HYDROCHLORIDE ]: “inactive”; `CC(C)C#Cc1ccc2c(c1)O[C@H](CN(C)C(=O)c1cnccn1)[C@H](C)CN([C@@H](C)CO)S2(=O)=O`: “inactive”; `CN(C)CC(=O)N[C@H]1C=C[C@H](CC(=O)O)O[C@H]1CO`: “inactive”.
